Assay results: the supplement of paper PMC3334620
Over roughly 33,000 sequences, “E-score (-0.5 to 0.5)” has its median near -0.016; the highest 2% begin near 0.31. This is one part of the list.

target: Cst6 (UniProt P40535); test: PBM E-score (8-mer binding enrichment) (E-score (-0.5 to 0.5)); higher = stronger / more preferred TF binding; most listed sequences are background and not binding sites; details: protein concentration: 200 nM; construct: GST-DNA-binding domain
Outline: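 Masliner-normalised scans of fluorescent anti-GST signal were the basis for scoring. That signal came from GST-tagged yeast transcription factors applied at about 100-200 nM to double-stranded universal all-10-mer Agilent arrays on fresh or once-stripped slides. Each ungapped eight-base word, pooled with its reverse complement, received an E-score from the Universal PBM Analysis Suite.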

Point of comparison: GCGCGCAC, “PBM E-score” value 0.178. Against it:
- CCTTAGCG — lower, -0.2
- AAGGTCTA — lower, -0.162
- AATCGCAT — lower, 0.0108
- ATTGAAGC — lower, -0.0635
- CCAACACA — lower, 0.0605
- TATTTGAA — lower, 0.132
- ACTCATAC — higher, 0.193
- CTTAGACA — lower, -0.0357
- CCGCTGAA — lower, -0.0652
- CCTGCTCA — lower, -0.211
- ACTACGAG — lower, -0.0759
- GCCTTGAC — lower, -0.0781
- AAAAAGGT — lower, 0.14
- AAGTAACA — lower, 0.177
- AACGCGAA — lower, 0.0569
- GTCGAGTA — lower, -0.0624
- GTTAGACA — lower, 0.176
- ACGCCGCC — lower, 0.124
- AGTGAGTA — higher, 0.245
- CACTTTTA — lower, 0.127
- AATGCGTG — lower, 0.0591
- AATCCGGA — lower, 0.0186
- CGCCTCAA — lower, -0.0366
- CGTGTGTA — lower, 0.0401
- ATAACTAT — lower, 0.0985
- GGCATGAC — higher, 0.245
- TACTAATA — higher, 0.222
- CGGTGACG — higher, 0.476
- CTCATCTC — lower, 0.144
- AGCGTACG — lower, -0.092
- AGGGTCAT — lower, -0.0579
- AACGTCGT — lower, 0.0196
- GTGTAGTA — lower, -0.0865
- CTGGCTGA — lower, -0.14
- ACCTTAGC — lower, -0.049
- CCGTAAGA — lower, -0.0536
- CTAGAACA — lower, -0.0144
- AACCCCGA — lower, -0.224
- TGAGCGAA — lower, 0.155
- GGGCCCCC — lower, -0.464
- TGGTCCAA — lower, -0.123
- CTAGGGAG — lower, -0.232
- AGGTAGGA — lower, -0.158
- GACCTAAA — lower, 0.174
- GAAAGCAA — lower, 0.131
- ACACGATA — lower, 0.0602
- GAGAGCTC — lower, -0.287
- AGATCCAG — lower, -0.182
- ATCAGTTC — lower, -0.0191
- AATCGCGT — lower, 0.0992
- CTCCACTA — lower, -0.123
- AGTTGGAA — lower, 0.0986
- AATCGGTA — lower, -0.0316
- TCACCTAA — higher, 0.203
- GAATGTGA — lower, 0.064
- CATTCGCA — lower, -0.0508
- CCCACCAA — lower, -0.0615
- AAGGCCCT — lower, -0.128
- CTCAAAGC — lower, -0.0428
- AGTCGCAA — lower, 0.0563
- ATTAATAG — higher, 0.281
- ATAGGGGC — lower, -0.222
- CCGTGAGC — lower, -0.0801
- ACCGTTCC — lower, 0.0197
- AGAGACGA — lower, -0.061
- GCAGTGGC — lower, 0.0207
- CACCAGTA — lower, -0.106
- AAACGTCG — lower, 0.0736
- AATTATGT — higher, 0.304
- GAACTGGC — lower, -0.112
- CCGAATCG — lower, 0.0572
- AGACCACA — lower, -0.204
- AGAAGAGC — lower, 0.0175
- ACTACGCG — lower, 0.0281
- CCCGTCCC — lower, -0.357
- CGAGCATA — lower, -0.0618
- GTAACTGA — lower, 0.152
- CAAGGCTC — lower, -0.227
- AAGTGCCA — lower, 0.0331
- GTTGTGGA — lower, -0.0234
- CGAAAAAC — lower, 0.151
- GGATGCAA — lower, -0.129
- AAACTGGA — lower, -0.134
- CATTACAA — higher, 0.225
- TCAACCGA — the same, 0.178
- CAGTATGG — lower, -0.15
- CGATCGTC — lower, 0.146
- CCACAGTC — lower, -0.348
- CAGCGTAA — lower, 0.102
- AAACATAT — higher, 0.209
- ACACTCGG — lower, -0.0878
- GCTGGGAC — lower, -0.203
- ATACACTG — lower, 0.0899
- GACATACC — lower, 0.121
- GCACCCTA — lower, -0.131
- AATCCGTA — lower, -0.0522
- AATCTTTC — lower, 0.0764
- GTATGAAC — lower, -0.00346
- AATCACTG — higher, 0.214
- GGTTATAC — lower, -0.0248
- CACGTCTA — lower, -0.0114
- CGGTGCGC — lower, -0.144
- CACTGCTC — lower, -0.0159
- AAGACACT — lower, 0.0684
- AGGTCTGG — lower, -0.155
- ATATACCC — lower, -0.00756
- CGCGAGCG — lower, -0.112
- ATGAGAAT — lower, 0.137
- CTATACAG — lower, -0.0654
- CGCACGAG — lower, 0.00379
- AGTTCTTA — lower, 0.0169
- AGGCATCA — lower, 0.0426
- CGAAGAGA — lower, -0.0371
- ACGCCCAG — lower, -0.176
- CCGCACCC — lower, -0.0355
- CGCCGACC — lower, -0.336
- TCAGATAA — lower, 0.174
- AACAGTCC — lower, -0.289
- AGATCGCA — lower, -0.00761
- AGGAAGCG — lower, 0.00262
- ACGGACCT — lower, -0.11
- GGCGGGCA — lower, -0.0394
- AGAAGGTG — lower, -0.0205
- AGTAGGAG — lower, -0.237
- GGGGTAAA — lower, 0.0414
- AGAAAGCT — lower, 0.0476
- CCGCTAGA — lower, -0.37
- GGGACTGA — lower, -0.222
- CTGGATGA — lower, 0.0796
- CCTGCATC — lower, -0.109
- AATGCCAG — lower, -0.183
- ACGATACT — lower, -0.0933
- ATGCGTAG — lower, -0.061
- CGGCGAGA — lower, 0.00749
- ATGCCACC — lower, -0.15
- CTACATAC — lower, 0.055
- ATTATAGC — lower, -0.0389
- CAGTGGAC — lower, -0.111
- ATGCCTCA — lower, 0.11
- CGGAGCAG — lower, -0.15
- GCTGGCGA — lower, -0.187
- TAGTCGAA — lower, 0.0626
- AGTACGAA — higher, 0.195
- CGCCAGCA — lower, -0.0789
- TATATGCA — lower, 0.0368
- GTAGTAGA — lower, 0.143
- CAACAACA — higher, 0.259
- ATAGTTAC — higher, 0.182
- ACAGGTCG — lower, -0.144
- AACCAACC — lower, -0.208
- AATTGTGG — lower, -0.0373
- ATTAATCG — lower, 0.172
- GGCTCTGA — lower, 0.0905
- GTGGGGCA — lower, -0.106
- ATCACTTA — higher, 0.194
- CTGTAGGC — lower, -0.195
- TCTCATCA — higher, 0.181
- CACGTTAC — lower, 0.143
- CTTACTTA — lower, 0.0601
- CTACACTA — lower, -0.00094
- GGTGTAAA — lower, -0.166
- GGTTTCTA — lower, 0.115
- CTGTGTTA — lower, 0.00958
- ATTATCCA — lower, 0.0715
- GATTTAAC — lower, 0.0628
- CTACGGCA — higher, 0.283
- GTCGTTCA — lower, 0.0498
- CCGGCCAA — lower, -0.232
- AACAAAAT — higher, 0.24
- CAGGCTCC — lower, -0.274
- AATGAACG — lower, 0.148
